# The campaign covered roughly 150,000 compounds. About 540 (0.36%) showed an effect of 50% or more. This is one part of the list.
# System: Plasmodium falciparum
# Assay: Primary screen in NF54 nanoGlo assay, in single point, at 2uM, 72h; a lower Z score goes with more inhibition
# Format: functional, Erythrocyte
# Conditions: timepoint 72 hour
SMILES,% Inhibition [%],Z score
CC(=O)Nc1ccc(C)cc1-c1nc2ccccc2n(CC(=O)Nc2cc(C)cc(C)c2)c1=O,-5,1.02
Cc1ccc(CN(Cc2ccccc2)C(=O)CN(CC(C)C)C(=O)Nc2ccc(C(C)C)cc2)o1,-9,1.19
O=C(c1[nH]nc2c1CCCC2)n1ccnc1,-5,0.6
CC(=O)c1ccc(S(=O)(=O)N2CCN(Cc3cocn3)CC2)cc1,-1,0.12
O=c1[nH]ccn2nc(-c3ccc(F)cc3)cc12,-8,1.58
CN(Cc1ncnn1-c1ccc2c(c1)CCC2)[C@H]1CCS(=O)(=O)C1,-2,0.32
O=C(NCC1(C2(O)CCC2)CC1)c1ncc2n1CCCC2,4,-0.46
Cc1noc(C)c1CN(C)C(=O)c1ccc(-c2ncnn2C(C)C)cc1,-12,1.28
CCc1nc(CC)n(Cc2nnc(-c3ccc(Cl)cc3)o2)n1,-9,1.25
C[C@H]1CC[C@@](C)(CNS(=O)(=O)C2CC2)C1(C)C,-12,1.66
CCn1cnnc1CNC(=O)N(Cc1cccc(O)c1)CC1CC1,-9,1.03
O=C1CCC2(CCN(CCCc3ccccc3)CC2)CN1CCc1cccnc1,16,-2.01
CCc1ncc2c(n1)CN(C(=O)c1cnc3ccccn13)C2,-16,2.26
CCOc1ccccc1C(=O)N1C[C@H](C(=O)NC)C2(CCCC2)C1,-12,1.49
O=C(NCC1(COc2ccccc2)CC1)N1CCN(CCO)CC1,-5,0.78
CC1CC(NCC(O)c2cccs2)CC(C)O1 (stereo not given),-13,1.81
COc1cccc(-c2nc(N3CCCCCC3)c3ccccc3n2)c1O,-14,1.84
CCc1cnc(CNC(=O)Nc2c(C)nsc2C)o1,-5,0.46
CC(C)(C)CS(=O)(=O)N1CCC(O)(C(F)(F)F)CC1,16,-2.02
Cc1ccc(C(=O)N2CCC(c3nnc(Cn4ccnc4C)n3C)CC2)cc1,6,-1.08
O=C1CCCN1CCc1nc(-c2ccc3c(c2)OCCO3)cs1,-6,0.5
Cc1cc(N2CCC[C@@]3(CCC(=O)N(CCc4ccccc4)C3)C2)ncn1,7,-0.9
CCC(CC)(CNC(=O)[C@@H]1CCO[C@H]1c1ccnn1C)OC,-1,0.18
CC(C)CN1CC[C@H](CNC(=O)N2CC(Cc3ccccc3)C2)C1,-3,0.49
Cc1nc(-c2ccc(C)c(S(=O)(=O)NC3CCCC3)c2)cs1,3,-0.34
CCCN(C(=O)c1cccs1)C1CCN(Cc2ccc3cn[nH]c3c2)CC1,-2,0.42
CCc1ocnc1C(=O)N1CCC[C@@H]1CF,-7,0.85
CC(C)(O)CN1CCN(C(=O)c2ccc3c(c2)OCCCO3)CC1,1,-0.14

SMILES,% Inhibition [%],Z score
OC[C@H]1CN(Cc2ccc(F)c(F)c2F)C[C@H]1CN1CCCCC1,0,0.04
COc1ccc(Cl)cc1N1CC[C@H](NC(=O)N2CCOCC2)C1,-11,0.99
Cc1ccc(NS(=O)(=O)c2cccc(-n3cnnn3)c2)c(C)c1O,-4,0.65
CN1CCOc2ccc(NC(=O)c3ccncc3Br)cc21,-7,1.43
CC(C)N(CCS(=O)(=O)N1CCNCC1)C(=O)c1ccccc1,-4,0.5
COc1cc2ccccc2cc1C(=O)Nc1nc(C)cc(C)n1,-18,2.42
O=C(NCc1ccco1)c1nnc(Cc2c(F)cccc2Cl)o1,-8,1.32
COCCC(=O)Nc1ccc2c(c1)C(C)(C)CC2(C)C,0,-0.05
O=S1(=O)CCC[C@H](Cc2ccc3oc(C4CC4)nc3c2)C1,-15,1.46
COc1ccccc1[C@H]1CC(=O)Nc2c1cnn2Cc1ccccc1,0,0.02
COc1ccccc1[C@H](CNS(C)(=O)=O)OC,0,-0.01
Cc1nc([C@H](C)N(C)S(=O)(=O)c2ccc(NS(=O)(=O)N(C)C)cc2)c(C)s1,-4,0.72
CCCOCCN1CCN(C(=O)c2cccc(-c3nc(C)n(C)n3)c2)CC1,0,-0.05
CC(NC(=O)NC(c1ccccc1Cl)C(C)C)C(=O)NCCF (stereo not given),10,-1.71
Cn1cc(Cl)cc1C(=O)NCc1ccc2[nH]c(=O)[nH]c2c1,-9,1.72
Cc1ccc(OCC(=O)N(C)[C@H](c2ccc(C)cc2)c2c[nH]c3ccccc23)cc1,13,-1.72
Cc1cc(C)n2nc(C)c(C(=O)N3CCN(c4ncnc(C)c4C)CC3)c2n1,-14,1.67
C(#CCN1CCOCC1)COCCCOC(c1ccccc1)c1ccccc1,-9,1.65
CCC(NCC(=O)NC1CCCCNC1=O)c1ccc(F)cc1F (stereo not given),4,-0.42
O=C(Cn1ccccc1=O)Nc1nc2ccccc2[nH]1,29,-3.94
Cc1c(-c2cccc(Cl)c2)nn2c1N=C(O)C[C@H]2C(=O)Nc1cccc(Cl)c1,-6,0.73
Cc1nc(-c2ccc(N3CCOCC3)cc2)no1,-4,0.5
CCCn1ccnc1-c1cn(C[C@H](C)N2CCN(C)CC2)nn1,7,-0.99
CCn1c(C)c(CN2CCC(C(=O)N[C@H]3CCCc4ccccc43)CC2)c2ccccc21,2,-0.32
CC(C)c1n[nH]c([C@@H]2CN(Cc3ccn(C)c(=O)c3)CCO2)n1,0,-0.07
CCn1ncc(NC(=O)Cc2ccccc2Cl)c(N2CCCCC2)c1=O,-4,0.72
COc1cnccc1C(C)NC(=O)N1CCCC(c2ccc(F)c(F)c2)C1 (stereo not given),-15,1.88

# Reference: ChEMBL document CHEMBL4888484, “Replenishing the malaria drug discovery pipeline: Screening and hit evaluation of the MMV Hit Generation Library 1 (HGL1) against asexual blood stage Plasmodium falciparum ,using a nano luciferase reporter read-out” (2022)
